These results are taken from the supplement of paper PMC4967469.

Holding throughout (experiment): Viability of human cancer cell lines after 72 h of drug (GDSC screen)
Compound in one assay: CC(C)C[C@H](NC(=O)[C@H](Cc1ccccc1)NC(=O)c1cnccn1)B(O)O [Bortezomib]
The note with it: top dose 0.02 µM. On the procedure:
(§1)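 Human cancer cell lines in 384-well plates, medium with 10% serum, drug for 72 h over a 256-fold dose range (nine 2-fold or five 4-fold steps up to the top dose). Adherent lines were fixed and stained with the nucleic acid dye Syto60, suspension lines read with resazurin; signal relative to control wells, capped at 0 and 100%. One two-parameter sigmoid per drug and line, fitted in a mixed model over all curves with the slope shared within a line.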

Compound in the next assay: CC(=O)O[C@H]1C(=O)[C@@]2(C)[C@H]([C@H](OC(=O)c3ccccc3)[C@]3(O)C[C@H](OC(=O)[C@H](O)[C@@H](NC(=O)c4ccccc4)c4ccccc4)C(C)=C1C3(C)C)[C@]1(OC(C)=O)CO[C@@H]1C[C@@H]2O [Paclitaxel]
The note with it: top dose 0.1024 µM. On the procedure:
as §1

Compound in a further assay: COCC(=O)NC/C=C/c1ccc2ncnc(Nc3ccc(Oc4ccc(C)nc4)c(C)c3)c2c1 [CP724714]
Conditions: top dose 10.24 µM; top dose inferred. On the procedure:
as §1

Compound in a further assay: Cc1cnc(CNC(=O)c2c(=O)c3ccc(N4CCCN(C)CC4)nc3n3c2sc2ccccc23)cn1 [CX-5461]
The note with it: top dose 10.24 µM; top dose inferred. On the procedure:
as §1

Compound in the next assay: Cc1cccc(Nc2nc(-c3ccncc3)cs2)c1 [STF-62247]
The note with it: top dose 10.24 µM; top dose inferred. On the procedure:
as §1

Compound in the next assay: COC1=CC(c2cc3ccccc3[nH]2)=N/C1=C\c1[nH]c(C)cc1C [Obatoclax mesylate]
Conditions: top dose 16 µM. On the procedure: as §1

By IC50 is meant the dose at which the fit gives 50% viability; where the fit passes the top or lowest dose, that dose stands as a limit. AUC sums up the same curve from the lowest dose to the 256-fold higher top dose; it is 1 without any effect and falls as sensitivity rises. For some of these results: The top dose, if marked as inferred, was calculated from the reported fits. Where only a bound is given, the exact number is not on record here.

On to EW-12 (Ewing sarcoma, suspension), for which, in the assay with Bortezomib, the AUC came to 0.881 and the IC50 is over 20 nM. For the same cell line, in the assay with Paclitaxel, the AUC amounted to 0.978 and the IC50 was over 102 nM.

With EW-22 (Ewing sarcoma, adherent), in the assay with Bortezomib, the AUC stood at 0.966 and the IC50 was over 20 nM.

With GA-10 (Burkitt lymphoma, suspension), in the assay with Bortezomib, the AUC is 0.469 and the IC50 stood at 1.04 nM. Besides, in the assay with Paclitaxel, the AUC was 0.344 and the IC50 is 2.55 nM.

Consider HCC2218 (breast, suspension), for which the AUC with CP724714 was found to be 0.308; in the assay with CX-5461, 0.902; with Bortezomib it was 0.844; with STF-62247 it was 0.967; with Obatoclax mesylate, 0.623. Further, the IC50 with CP724714 was 160 nM; with CX-5461 it was over 10200 nM; in the assay with Bortezomib, over 20 nM; with STF-62247 it was over 10200 nM; in the assay with Obatoclax mesylate, 2390 nM.

In the case of HCC2998 (large intestine, adherent), the AUC is 0.988 with CP724714; 0.953 with CX-5461; 0.344 with Bortezomib; 0.985 with STF-62247; 0.067 with Obatoclax mesylate. Also, the concentration for half-maximal inhibition (IC50) was over 10200 nM with CP724714; over 10200 nM in the assay with CX-5461; 0.468 nM in the assay with Bortezomib; over 10200 nM with STF-62247; under 62.5 nM with Obatoclax mesylate.

For the cell line JAR (urogenital system, adherent), the AUC with CP724714 worked out at 0.974; with CX-5461 it was 0.988; with Bortezomib, 0.836; in the assay with STF-62247 it was 0.975; with Obatoclax mesylate it was 0.943. Moreover, the half-inhibitory concentration (IC50) with CP724714 was over 10200 nM; with CX-5461 it was over 10200 nM; with Bortezomib, 12.9 nM; in the assay with STF-62247, over 10200 nM; with Obatoclax mesylate, over 16000 nM.

As for “JURL-MK1 (chronic myeloid leukaemia, suspension)”, the AUC in the assay with CP724714 came out at 0.969; with CX-5461 it was 0.822; with Bortezomib, 0.635; with STF-62247 it was 0.942; with Obatoclax mesylate, 0.506. Further, the IC50 with CP724714 was over 10200 nM; with CX-5461, 5930 nM; with Bortezomib it was 2.95 nM; with STF-62247, over 10200 nM; with Obatoclax mesylate, 1040 nM.

In the case of “K-562 (chronic myeloid leukaemia, suspension)”, the AUC with CP724714 amounted to 0.959; in the assay with CX-5461 it was 0.929; with Bortezomib it was 0.764; with Obatoclax mesylate, 0.581. Moreover, the concentration for half-maximal inhibition (IC50) was over 10200 nM in the assay with CP724714, over 10200 nM in the assay with CX-5461 and 1650 nM with Obatoclax mesylate.

Regarding KGN (ovary, adherent), the AUC with CP724714 came to 0.98; in the assay with CX-5461, 0.319; with Bortezomib, 0.569; with STF-62247, 0.96; with Obatoclax mesylate, 0.299. Further, the IC50 with CP724714 is over 10200 nM; with CX-5461, 177 nM; with Bortezomib, 2.02 nM; with STF-62247 it was over 10200 nM; with Obatoclax mesylate, 239 nM.

Turning to KURAMOCHI (ovary, adherent), the AUC in the assay with CP724714 worked out at 0.977; with CX-5461, 0.977; with Bortezomib, 0.511; in the assay with STF-62247, 0.982; with Obatoclax mesylate, 0.136. Further, the concentration for half-maximal inhibition (IC50) is over 10200 nM with CP724714; over 10200 nM in the assay with CX-5461; 1.34 nM with Bortezomib; over 10200 nM with STF-62247; under 62.5 nM with Obatoclax mesylate.

In the case of “LB647-SCLC (small cell lung carcinoma, semi-adherent)”, the AUC amounted to 0.846 in the assay with CX-5461, 0.651 with Bortezomib, 0.621 in the assay with Paclitaxel and 0.856 in the assay with STF-62247. The concentration for half-maximal inhibition (IC50) with CX-5461 turned out to be 8830 nM; with Bortezomib, 3.47 nM; with Paclitaxel it was 14.4 nM; with STF-62247, 9850 nM.

Consider LS-1034 (large intestine, adherent), for which the AUC in the assay with CP724714 stood at 0.986; with CX-5461, 0.834; with Bortezomib, 0.841; with STF-62247, 0.907; in the assay with Obatoclax mesylate it was 0.456. For the same cell line, the half-maximal inhibitory concentration (IC50) with CP724714 is over 10200 nM; in the assay with CX-5461, 7670 nM; in the assay with Bortezomib, 16.1 nM; with STF-62247 it was over 10200 nM; with Obatoclax mesylate, 750 nM.

On to “MOLT-4 (lymphoblastic leukaemia, suspension)”, for which the AUC in the assay with CP724714 was 0.986; in the assay with CX-5461 it was 0.169; with Bortezomib it was 0.44; in the assay with STF-62247, 0.928; with Obatoclax mesylate, 0.1. Further, the IC50 with CP724714 is over 10200 nM; with CX-5461, 83.5 nM; with Bortezomib, 0.888 nM; with STF-62247 it was over 10200 nM; with Obatoclax mesylate it was 73 nM.

Turning to NB12 (neuroblastoma, adherent), the AUC was 0.951 in the assay with CP724714; 0.62 with CX-5461; 0.554 in the assay with Bortezomib; 0.98 in the assay with STF-62247; 0.443 with Obatoclax mesylate. Moreover, the half-maximal inhibitory concentration (IC50) is over 10200 nM with CP724714; 1540 nM with CX-5461; 1.85 nM in the assay with Bortezomib; over 10200 nM with STF-62247; 662 nM with Obatoclax mesylate.
